# Test results published in the supplement of paper PMC11417369.
# ± gives the standard deviation of the averaged measurements. This is one part of the list.
# Tested on: PfAP2-EXP AP2 domain (GST-tagged)
# Experiment: gcPBM binding intensity (ln(normalized median fluorescence intensity)); higher = stronger DNA binding
# Outline: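 The highest Masliner-normalised natural-log median intensity across replicate spots of either probe orientation is reported as binding intensity. GST-tagged P. falciparum DNA-binding domains expressed in E. coli were applied for 1 h to an Agilent 4 × 180k array of primer-extended double-stranded 36-bp intergenic genomic probes plus negative controls, and bound protein was detected with Alexa488 anti-GST antibody and scanned at 488 nm.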
row,Sequence,gcPBM binding intensity (ln)
1,ATATTTATGGAATATACACACATGTATAATTACATA [CACACA_site7045],8.19 ± 0.25
2,AAATAAATCTTATGCACACAAATAATTAATGAAACA [CACACA_site5011],8.62 ± 0.29
3,TCTTTGTACTTTCACATGTACACCCAAATGGAAATT [CACACA_negctrl_site1442],8.82 ± 0.3
4,AGGACTAATATTTGAACACACATATAATAAATACAT [CACACA_site6068],8.61 ± 0.45
5,TATATATATATATACACACACACAAAAAAAAAAAAA [CACACA_site1505],10.2 ± 0.21
6,AGCATAAACAATTTTTGAAAAAATATACACTCATAG [CACACA_negctrl_site890],8.55 ± 0.38
7,AAAATAACGAGTCAAACACACATATATATATATATA [CACACA_site2039],10.1 ± 0.47
8,CTCAACATATACGTAACACACATATATATATATATA [CACACA_site3838],10.2 ± 0.41
9,TCTACAAGGCTTGATCGTACAATTTGAATGTATTTG [XGTACX_site7698],8.49 ± 0.57
10,AGATTATATATATGTATATATGTATATATTTATATA [CACACA_negctrl_site1797],7.92 ± 0.3
11,TATGCAAGGAACCACACACACACACCCAAATGTATA [CACACA_site750],8.55 ± 0.63
12,TATCTCTCTTTCTGCTGTACATAAAAATTATATAAT [XGTACX_site5961],8.97 ± 0.41
13,AACATATTTTTAAATACACACACATAAAAAAAAAAA [CACACA_site8279],8.59 ± 0.5
14,TATATATAATATACATGTACAAATGTATTTAAAAAT [XGTACX_site6090],8.62 ± 0.36
15,TCATATTTGCCTTTTTATTTAGAACACAAAAAAAAA [CACACA_negctrl_site1152],8.24 ± 0.38
16,CAAAAAAAGAAAGCTACACACATTTATGTGCTATAT [CACACA_site2777],8.39 ± 0.3
17,AGAAAATACACGCATACACACACACCCACCCACATA [CACACA_site8115],9.13 ± 0.33
18,ATTCGGATATATATCACACATAACTTTAATAATATA [CACACA_site5720],8.43 ± 0.38
19,AATTAAAAATTCAAGTGTACTTTTATATTATTATAC [XGTACX_site4106],8.34 ± 0.23
20,ATTATAATAGTTAAATGTACACACTAACTACATGGA [XGTACX_site6918],8.58 ± 0.24
21,TAAATAGCCAAACGCACACCCACAAAAAAAAAAAAA [CACACA_site1554],8.25 ± 0.35
22,AGAGAATATTTCCACACATGCAAATGTTATATGTAA [TGCATGCA_site282],8.68 ± 0.13

row,Sequence,gcPBM binding intensity (ln)
1,ATTGATTTTTAATATACACACATAAGGACCACAAAA [CACACA_site4344],8.99 ± 0.26
2,AATTATATTAATTCTTCATTACATTTTAAAATATTA [XGTACX_negctrl_site510],8.46 ± 0.49
3,AATACGCATTTTAGTACACACTTAAAAAGTTATTTT [CACACA_site7401],8.415 ± 0.078
4,TTATAATATAAAAATAAATAAATAAATAAATAAATA [CACACA_negctrl_site1587],8.55 ± 0.11
5,TTCGTTATATTTTGATGTACTGATTCATATATATAT [XGTACX_site1835],9.435 ± 0.007
6,TGCTATTATTTATGTACACACCAATTTATTTATAAT [CACACA_site6029],8.89 ± 0.29
7,GGAAAGACATTACACAGTACCCAGGAAATCTACGGA [XGTACX_site2002],8.49 ± 0.61
8,TAATATTTATTCTATTGTACATAAAATATATATATA [XGTACX_site7132],9.225 ± 0.078
9,ATAAATAAAAAACACACACACACACCCAAAAAAAAA [CACACA_site2624],8.68 ± 0.51
10,TCAACATTTAAAAATAGTACTCATAAACCTTTCGAA [XGTACX_site4111],8.13 ± 0.38
11,ATTATATATGTATAAATATGCTATATATATATATAT [GTGCAC_negctrl_site430],10.3 ± 0.17
12,TATACATATGTATGCACACATACATACACATAGAAT [CACACA_site3480],8.44 ± 0.33
13,TATATTATTTAAAAAGTGCAGTTACAAGATGAACCT [GTGCAC_site9641],8.37 ± 0.18
14,TTTGGAATATAATATTGTACATATTATATATATATA [XGTACX_site3187],9.63 ± 0.27
15,TTTTTTTTTAAATATACACACACATTTATACATATA [CACACA_site9122],8.38 ± 0.32
16,AATGTATTTATTTTTTGTACATATCGTGTGTGTATT [XGTACX_site1009],8.77 ± 0.42
17,TTCTATTATGTGACTCAATTCTTCATGGGTGTATAA [TGCATGCA_negctrl_site140],8.61 ± 0.45
18,TTATTTATTTTTATATGTACACAAAAAAAAAAAAAA [XGTACX_site1459],8.43 ± 0.35
19,AATATATATAACGTTGGTACACAAAAATTATTAAAT [XGTACX_site8572],8.9 ± 0.37
20,TTTTTTTTTTTTTTAACACACATATATATATTTTTC [CACACA_site1922],8.34 ± 0.52
21,CCTCATCCACTATGCACACAAAAAAGAAATACACTA [CACACA_site3422],8.88 ± 0.21
22,TTCTCAAATATAATAAAATTATAAAGTGACCTAACT [GTGCAC_negctrl_site493],8.31 ± 0.38
